# Patent US20230272055A1, “ANTI-MUTANT CALRETICULIN (CALR) ANTIBODIES AND USES THEREOF” (Incyte Corporation, priority 2021, published 2023)
# Experiments:
# [1] = target: T1, recombinant MBP-mutCALR Type 2 fusion protein (Homo sapiens, UniProt P27797); test: Biacore SPR binding kinetics, Experiment 3
# T1 construct: His6 (N); purchased Cepter (cepterbiopartners.com), custom made
# Method: Experiment 2: Recombinant MBP-mutCALR Type 1 fusion protein was custom made at Cepter (cepterbiopartners.com). Data for the interaction of antibodies with recombinant mutCALR protein were collected at 25° C. on a Biacore 8K instrument (Cytiva, Marlborough, Mass.), and all reagents were obtained from Cytiva unless otherwise specified. The experiments were conducted using Tris-buffered saline (pH 7.2), 0.005% Surfactant P20, 1 mM CaCl2) as running buffer. To prepare the capture surfaces, anti-human IgG (Fc) antibodies (Product #29234600) was amine-coupled onto a CM4 chip (Product #BR100534) under standard conditions using an Amine Coupling Kit (Product #BR100050). Anti-mutCALR antibodies were captured onto the chip surface by injecting over flow cell 2 only at a flow rate of 10 μL/min for 30 seconds. Typical capture levels were in the range of 15-25RU. Recombinant MBP-mutCALR Type 1 fusion protein was prepared at nominal concentrations of 0, 0.75, 2.22, 6.67, 20, and 60 nM and injected over both flow cells 1 and 2 for 150 seconds at a flow rate of 69 L/min, followed by a 230-second dissociation phase at the same flow rate. The kinetics parameters were obtained by applying 1:1 binding model to fit the data from multiple-cycle injection experiments using Biacore Insight Evaluation software.
# Experiment 3: The amino acid sequence of recombinant MBP-mutCALR Type 2 fusion protein used in this Experiment 3 is:
# Recombinant MBP-mutCALR Type 2 fusion protein was custom made at Cepter (cepterbiopartners.com). Data for the interaction of antibodies with recombinant MBP-mutCALR Type 2 fusion protein were collected as described in Experiment 2. The chip used was a Biacore Series S Sensor Chip CM4 with anti-huFc immobilized onto the chip surface. Recombinant MBP-mutCALR Type 2 fusion protein was prepared at nominal concentrations of 1.1, 3.3, 10, 30, and 90 nM. Typical capture levels were in the range of 16-37RU.
# [2] = test system: Ba/F3 cells transfected with MPL and mutCALR Type 1; test: Inhibition of cell proliferation, CellTiter-Glo 72 hours, mutCALR Type 1; type: cell-based; conditions: Ba/F3 engineered cells, high-throughput primary screening
# Summary of the method: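 Anti-mutCALR antibodies were added to engineered Ba/F3 cells (MPL with Type 1 or Type 2 mutCALR; 5,000/well, RPMI 1640, 2% FBS). Proliferation was scored as CellTiter-Glo luminescent viability following a 72 h incubation.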
# [3] = test system: CD34+ cells from human cord blood (WT cells) or an MPN patient with mutCALR; test: Megakaryopoiesis with clone 74 and ruxolitinib co-treatment; type: cell-based; conditions: six days, FIG. 19D; for frequency/production of megakaryocytes: single agent (25 nM ruxolitinib or 25 μg/mL clone 74)
# Text: In another experiment, Clone 74 and ruxolitinib were combined to determine the impact of co-treatment on megakaryopoiesis produced by CD34^+ cells from human cord blood (WT cells) or an MPN patient with mutCALR (mutCALR cells).
# [4] = test system: WT BaF3 cells or Ba/F3-TPOR/mutCALR type 1; test: Cell cycle profile (BrdU/7-AAD flow cytometry); type: cell-based; conditions: 24 hours, FIG. 20
# Method: Engineered BaF3 cells (10,000 cells/well) were added to a 12-well plate containing 2.0 mL culture media with serially diluted antibodies. The treatment period was for 24 hours. After 22 hours of incubation, Ba/F3 cells were pulse-labeled with BrdU for 2 hours. After 24 hours, Ba/F3 cells were collected, washed with PBS and incubated with BD Cytofix/Cytoperm buffer for 20 minutes on ice. Cells were then washed with the BD Perm/Wash buffer and the cell pellets were resuspended in 100 μL of BD Cytoperm and Permeabilization buffer and incubated on ice for 10 minutes. Cells were then washed and resuspended in 100 μl of BD Cytofix/Cytoperm buffer and incubated at room temperature for 5 minutes. Cells were washed and treated with 100 μL of 300 μg/mL solution of DNase, and incubated for 1 hour at room temperature, and were then washed and resuspended in 50 μl of BD Perm/Wash buffer containing anti-BrdU-APC antibody for 20 minutes in the dark at room temperature. After additional washing, cells were resuspended in PBS containing 2% FBS and 7-AAD and analyzed for cell cycle profiles on the LSRFortessa™ X-20 analyzer (BD Biosciences). Clone 74 was screened to determine its effect on the cell cycle using WT BaF3 cells or Ba/F3-TPOR/mutCALR type 1.
# [5] = test system: Ba/F3-TPOR/mutCALR type 1 engineered cells; test: Cell proliferation with antibody and/or ruxolitinib, mutCALR Type 1; type: cell-based; conditions: log value, 72 hours
# Method: To test the ability of anti-mutCALR antibodies to potentiate the therapeutic response of the JAK1/2 inhibitor ruxolitinib, Ba/F3 cells were engineered to express MPL+mutCALR Type 1 (52 bp deletion) or MPL+mutCALR Type 2 (5 bp insertion) as described above. Cells were plated at 5,000 cells per well in RPMI 1640+2% FBS, treated with 50 nM of ruxolitinib and/or anti-mutCALR antibodies. Cells were incubated for 72 hours followed by assessment of cell viability using the CellTiter-Glo Luminescent Cell Viability Assay (Promega, Madison, Wis.) and Top Count (Perkin Elmer, Boston, Mass.) or Pherastar (BMG Labtech, Ortenberg, Germany) for luminescence quantification. Ruxolitinib used at a concentration of 50 nM inhibited the level of oncogenic cell proliferation by approximately 20% (dotted line).
ka [1],kd [1],IC50 inhibition of cell proliferation [2],"Log IC50, Antibody alone [5]","Log IC50, Antibody + ruxolitinib ([5]; with 50 nM ruxolitinib)",Molecule,frequency/production of megakaryocytes ([3]; WT CD34+ cells (human cord blood)),pathogenic megakaryocytes produced by mutCALR+ CD34+ cells ([3]; combination of 25 nM ruxolitinib and 25 μg/mL of clone 74),frequency/production of megakaryocytes ([3]; mutCALR+ CD34+ cells),"induction of apoptosis ([4]; BaF3 cells carrying mutCALR, dose-dependent)",cell cycle profiles ([4]; WT BaF3 cells)
668000 M⁻¹ s⁻¹,0.00424 s⁻¹,0.3 ng/mL,,,65 (antibody) heavy: EVQLVQSGAEVKKPGASVKVSCKVSGYTLTELSMQWVRQAPGKGLEWMGGFDPDDGETMYAEKFQGRLTVTEDTSTDTVYMELRSLTSEDTALYFCATSPGYDFFDYWGQGTLVTVSSASTKGPSVFPLAPSSKSTSGGTAALGCLVKDYFPEPVTVSWNSGALTSGVHTFPAVLQSSGLYSLSSVVTVPSSSLGTQTYICNVNHKPSNTKVDKRV[omitted - human IgG1 Fc with changes] light: SYVLTQPPSVSVAPGKTARITCTGTSSDVGGYNYVSWYQQKPGQAPVLVVYEVSNRPSGIPERFSGSNSGNTATLTISRVEAGDEADYYCQVWDSSNDLLIFGGGTKLTVLGQPKAAPSVTLFPPSSEELQANKATLVCLISDFYPGAVTVAWKADSSPVKAGVETTTPSKQSNNKYAASSYLSLTPEQWKSHRSYSCQVTHEGSTVEKTVAPTECS,,,,,
854000 M⁻¹ s⁻¹,0.00579 s⁻¹,1 ng/mL,−0.438 μg/mL,−1.458 μg/mL,74 (antibody) heavy: EVQLVQSGAEVKKPGASVKVSCKVSGYTLTELSMQWVRQAPGKGLEWMGGFDPDDAETMYAEKFQGRLTVTEDTSTDTVYMELSSLRSEDTAVYFCATSPGYDFFDYWGQGTLVTVSSASTKGPSVFPLAPSSKSTSGGTAALGCLVKDYFPEPVTVSWNSGALTSGVHTFPAVLQSSGLYSLSSVVTVPSSSLGTQTYICNVNHKPSNTKVDKRV[omitted - human IgG1 Fc with changes] light: SYVLTQPPSVSVAPGKTARITCTGTSSDVGGYNYVSWYQQKPGQAPVLVVYEVSNRPSGIPERFSGSNSGNTATLTISRVEAGDEADYYCQVWDSSNDLLIFGGGTKLTVLGQPKAAPSVTLFPPSSEELQANKATLVCLISDFYPGAVTVAWKADSSPVKAGVETTTPSKQSNNKYAASSYLSLTPEQWKSHRSYSCQVTHEGSTVEKTVAPTECS,but not from WT CD34^+ cells,further depletion,selectively reduced,selectively induced apoptosis,did not impact cell cycle profiles
